In PubChem BioAssay AID686978 (National Center for Advancing Translational Sciences (NCATS), 2013):
Where “and” joins values, the source holds several entries; their conditions need not be identical. Identical values can stand only once. Out of some 420,000 compounds screened, about 64,000 (15%) were called active. The inconclusive results got no clear call from the source; some entries with a clear call stand among them for comparison. Calls come from the whole dose curve; as a rule, active = well fitted inhibition curve with a large enough effect; inconclusive = small, poorly fitted or top-dose-only effect; inactive = flat fitted curve, though single readings scatter. Potencies of inconclusive entries are left out as doubtful fits.

Assay: qHTS for Inhibitors of human tyrosyl-DNA phosphodiesterase 1 (TDP1): qHTS in cells in absence of CPT; note: nearly all actives have a fitted effect of over 55% in size
Conditions: DT40 Tdp1-/- hTDP1 cells, no CPT, ATP luminescence, 48 h; activity change, negative = growth inhibition: at 46.2 µM (top of the series)
Outline: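 Growth of hTDP1-complemented DT40 Tdp1-knockout cells is measured by ATP luminescence after at least 48 hr compound exposure at 37 °C, with DMSO substituting for the 20 nM CPT used in the parallel screen.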
% is set by controls: 0 for no effect and ±100 for the full control effect; potency is the fitted concentration of half-maximal effect; tags give direction and shape of the fitted curve.

| SMILES | Potency | activity change, negative = growth inhibition |
| --- | --- | --- |
| CCCCC1CCC(c2ccc(C(N)=O)cc2)CC1 (configuration not stated) | inactive | – |
| O=C(Nc1cccc(C(F)(F)F)c1)Nc1nnc(N2CCCCC2)s1 | inconclusive [inhibitor, partial curve, poor fit] | – |
| Nc1ccc(S(=O)(=O)NN=CC=Cc2ccccc2[N+](=O)[O-])cc1 | inconclusive [inhibitor, partial curve, poor fit] | – |
| CSc1ccc2nnc(-c3cccc(F)c3)n2n1 | inconclusive [inhibitor, partial curve] | – |
| O=C(Cn1c2[n+](c3ccc(C(F)(F)F)cc31)CCCCC2)c1ccc2c(c1)OCCO2 | active: 20.6 µM | – |
| COc1ccc(C)cc1Nc1n[n+](-c2ccccc2)c(-c2cc([N+](=O)[O-])cc(OC)c2O)s1 | inconclusive [inhibitor, single point] | – |
| Cc1ccc(C)c(CN2C(=O)CSc3ccc(C(=O)NCCc4ccc(Cl)cc4)cc32)c1 | inconclusive [inhibitor, single point] | – |
| CC(C)(C)C(=O)N1CCC[C@H]1C(O)(c1ccccc1)c1ccccc1 | inconclusive [inhibitor, single point] | – |
| CCC1CCCCN1Cc1nc2c(c(=O)n(C)c(=O)n2C)n1Cc1c(F)cccc1Cl (configuration not stated) | inconclusive [inhibitor, single point] | – |
| Clc1ccc(CNc2cc(-c3ccccc3)nc3nncn23)cc1 | active: 13 µM | – |
| O=C(CCNS(=O)(=O)c1ccccc1C(F)(F)F)N1CCN(c2ccccc2O)CC1 | inconclusive [inhibitor, single point] | – |
| N#CC1=C(N)Oc2ccc3ccccc3c2C1c1cccnc1 (configuration not stated) | active: 5.17 µM | – |
| CCOC(=O)c1c(CSc2ccc(C)cc2)oc2ccc(O)cc12 | inconclusive [inhibitor, partial curve, poor fit] | – |
| O=C1CC2(CCN(C(=O)C(=O)c3c[nH]c4ccccc34)CC2)Oc2ccccc21 | inconclusive [inhibitor, partial curve] | – |
| COc1cc2nc(NC(=O)c3ccco3)sc(=O)c2cc1OC | inconclusive [inhibitor, partial curve] | – |
| CCN(c1ccccc1)S(=O)(=O)c1ccc2[nH]cc(C(=O)NCc3ccc(C)cc3)c(=O)c2c1 | inconclusive [inhibitor, single point] | – |
| CN(C)CCCNC(=O)c1cc(C(=O)c2cccc(Cl)c2Cl)c[nH]1 | inconclusive [inhibitor, single point] | – |
| CCc1cc(CNC(=O)C2CCC(=O)N(Cc3cccc(F)c3)C2)on1 (configuration not stated) | inactive | – |
| COc1ccc(N2CC(NC(=O)c3ccc(OC(C)C)cc3)CC2=O)cc1 (configuration not stated) | inconclusive [inhibitor, single point] | – |
| OCCNCc1cc(Br)ccc1OCc1ccccc1Cl | active: 20.6 µM | – |
| CCN(CC)c1ccc(S(=O)(=O)N2CCOCC2)cc1NC(=O)CN1CCc2ccccc2C1 | active: 7.31 µM | – |

| SMILES | Potency | activity change, negative = growth inhibition |
| --- | --- | --- |
| COc1ccc(C(=O)/C=C/Nc2ccc(C)cn2)cc1OC | inconclusive [inhibitor, single point] | – |
| CCCCc1ccc(CC(=O)Nc2cc(S(=O)(=O)N3CCOCC3)ccc2O)cc1 | inconclusive [inhibitor, single point] | – |
| O=C(N[C@@H](Cc1ccccc1)C(=O)NC1CCCCCC1)c1ccco1 | inconclusive [inhibitor, single point] | – |
| CCOc1ccc(C(C)NC(=O)c2cccc(F)c2)cc1 (configuration not stated) | inconclusive [inhibitor, partial curve] | – |
| COc1ccccc1C(=O)Nc1ccc(S(=O)(=O)N2CCCCC2c2cccnc2)cc1 (configuration not stated) | inconclusive [inhibitor, single point] | – |
| O=C(C[n+]1cccc2cccc(O)c21)c1ccc2ccccc2c1 | inconclusive [inhibitor, single point] | – |
| Cc1nn(C)c(C)c1S(=O)(=O)N(CC(=O)N1CCc2ccccc21)c1ccc(C(C)C)cc1 | inconclusive [inhibitor, single point] | – |
| O=C(CSc1nnc(-c2ccco2)c(-c2ccco2)n1)Nc1ccccc1 | inconclusive [inhibitor, partial curve] | – |
| CC1Cc2ccccc2N1C(=O)CSc1nnc(-c2ccc(S(=O)(=O)N3CCCC3)cc2)n1C (configuration not stated) | inconclusive [inhibitor, single point] | – |
| CC(=O)N1CC(=O)N(OCc2ccccc2)C1c1ccc(Cl)cc1Cl (configuration not stated) | inactive | – |
| COc1ccccc1CNC(=O)CN1C(=O)CCn2nc(-c3ccccc3)cc21 | inconclusive [inhibitor, single point] | – |
| COc1ccc(-c2nc3sc(CCNS(=O)(=O)c4ccc(F)c(C)c4)c(C)n3n2)cc1 | active: 20.6 µM | – |
| O=C(c1cc(C(F)(F)F)cc(C(F)(F)F)c1)N1CCC[C@@]2(CCN(c3ncccn3)C2)C1 | inconclusive [inhibitor, single point] | – |
| COc1ccccc1CCn1c(=O)c(-c2cc(F)cc(F)c2)nc2cncnc21 | inactive | – |
| O=C(O)C1Nc2c(C(F)(F)F)ccc(Cl)c2C2C=CCC12 (configuration not stated) | inconclusive [inhibitor, partial curve] | – |
| COc1ccc(OCc2cc(C(=O)NCc3nc(C)cs3)no2)c(Cl)c1 | – | inconclusive: -31.4% [inhibitor] |
| COc1ccc(CNC(=O)c2c(O)c3cccc4c3n(c2=O)CCC4)cc1OC | inconclusive [inhibitor, single point] | – |
| CC(C)=CCc1c2c(c3occ(-c4ccc(O)c(O)c4)c(=O)c3c1O)C=CC(C)(C)O2 | active: 580 nM and active: 1.46 µM | – |
| O=C(Nc1ccccc1C(=O)O)c1cc(S(=O)(=O)N2CCCCC2)cs1 | inactive | – |
| CCOc1ncccc1C(=O)Nc1ccc(S(=O)(=O)N2CC(C)CC(C)C2)cc1 (configuration not stated) | inconclusive [inhibitor, full curve] | – |
| CSc1ccc(/C=C2\NC(=O)NC2=O)cc1 | inconclusive [inhibitor, partial curve] | – |
